The structures appear in SMILES notation. Out of some 310,000 compounds screened, about 14,000 (4.5%) showed an effect of 50% or more. The effect is printed as a negative number. The list shows a part of the results.
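Note: peak tail current of the secondary pulse compared with the same well before compound.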

Sequence of human ether-à-go-go-related gene (hERG) potassium channel (Q12809 whole entry, looked up): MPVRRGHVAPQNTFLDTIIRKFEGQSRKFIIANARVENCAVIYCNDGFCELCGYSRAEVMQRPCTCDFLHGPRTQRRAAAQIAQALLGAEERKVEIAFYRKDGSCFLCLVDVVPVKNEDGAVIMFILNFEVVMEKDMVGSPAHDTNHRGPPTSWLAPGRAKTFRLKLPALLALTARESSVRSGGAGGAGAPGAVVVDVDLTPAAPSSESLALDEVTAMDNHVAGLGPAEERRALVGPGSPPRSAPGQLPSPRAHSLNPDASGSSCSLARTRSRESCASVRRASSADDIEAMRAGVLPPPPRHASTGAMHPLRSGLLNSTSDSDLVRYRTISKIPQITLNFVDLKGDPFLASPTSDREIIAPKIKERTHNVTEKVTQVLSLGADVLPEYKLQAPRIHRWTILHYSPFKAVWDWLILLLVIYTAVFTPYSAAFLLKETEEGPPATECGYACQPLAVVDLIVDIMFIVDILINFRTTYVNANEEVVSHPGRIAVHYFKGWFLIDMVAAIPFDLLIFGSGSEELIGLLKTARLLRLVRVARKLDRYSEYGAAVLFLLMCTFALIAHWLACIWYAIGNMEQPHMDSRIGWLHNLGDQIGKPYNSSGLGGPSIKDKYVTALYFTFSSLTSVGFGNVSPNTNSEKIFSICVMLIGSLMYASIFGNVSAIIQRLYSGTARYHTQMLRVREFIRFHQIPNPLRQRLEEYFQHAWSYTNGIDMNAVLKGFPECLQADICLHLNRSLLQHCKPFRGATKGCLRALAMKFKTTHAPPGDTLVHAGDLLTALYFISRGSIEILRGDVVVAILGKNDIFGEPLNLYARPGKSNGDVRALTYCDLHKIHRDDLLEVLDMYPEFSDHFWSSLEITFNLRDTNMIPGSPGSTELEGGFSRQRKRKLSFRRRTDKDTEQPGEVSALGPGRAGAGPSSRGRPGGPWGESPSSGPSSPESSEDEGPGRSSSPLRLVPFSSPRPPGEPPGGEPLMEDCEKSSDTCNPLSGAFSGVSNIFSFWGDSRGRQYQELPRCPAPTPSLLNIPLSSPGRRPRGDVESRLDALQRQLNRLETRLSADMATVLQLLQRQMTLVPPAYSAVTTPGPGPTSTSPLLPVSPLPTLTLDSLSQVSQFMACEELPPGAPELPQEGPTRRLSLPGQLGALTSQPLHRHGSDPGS

This assay addresses human ether-à-go-go-related gene (hERG) potassium channel (human, UniProt Q12809). In words: primary screen, population patch clamp on CHO cells stably expressing hERG.
On to `Cc1ccc(-n2nc(C)c3onc(C)c3c2=O)cc1`, for which the “hERG current change (%, negative = inhibition) at 10uM” value came to 6.89%. Consider `O=C(c1ccc(Cl)cc1)N1CCCC(C(=O)N2CCN(c3ccccc3)CC2)C1` (centres unmarked), for which the “hERG current change (%, negative = inhibition) at 10uM” value is reported as -37.2%. The figure for `CCCOc1ccc(CC(=O)N/N=C\c2ccc(F)cc2)cc1` is 5.63%; for `O=C(NCc1ccccc1)c1onc(CSc2ccccc2)c1C(=O)NCC1CC1` it is -33.4%. With `COc1ccc(C(=O)Nc2cc(Cl)ccc2C(=O)O)cc1`, the “hERG current change (%, negative = inhibition) at 10uM” value came out at 24.7%.

As to `CC(C)Cn1c(SCC(=O)Nc2cc(Cl)c(Cl)cc2Cl)nc(O)cc1=O`, the “hERG current change (%, negative = inhibition) at 10uM” value is listed as 10.1%. For the compound `O=C(COC(=O)/C=C/c1ccco1)NCc1ccccc1Cl`, the “hERG current change (%, negative = inhibition) at 10uM” value is given as 17.7%. For `O=C(NNS(=O)(=O)c1ccc(F)cc1)c1ccccc1O`, the “hERG current change (%, negative = inhibition) at 10uM” value is recorded as 12.7%. The figure for `O=c1c(Cl)c(N/N=C/c2ccc(Cl)cc2)cnn1-c1ccccc1` is 2.19%. Regarding `Cc1ccc(S(=O)(=O)N2CCOC23CCN(C(=O)c2cc(Cl)ccc2Cl)CC3)cc1`, the “hERG current change (%, negative = inhibition) at 10uM” value is given as -47.6%. For `CCCCCCn1nc(C(=O)N(CC(C)C)c2c(N)n(CCCC)c(=O)[nH]c2=O)c2ccccc2c1=O`, the “hERG current change (%, negative = inhibition) at 10uM” value is -51.9%. As for `COCCn1nnnc1C(c1ccccn1)N1CCN(c2cc(C)ccc2C)CC1.Cl` (centres unmarked), the “hERG current change (%, negative = inhibition) at 10uM” value was -29.1%. The figure for `COc1ccc(C)cc1NC(=O)c1ccc(OC(F)F)cc1` is -24.3%; for `COC(=O)c1cc(C(=O)Nc2ccc(Cl)cn2)cc([N+](=O)[O-])c1` it is -19%.

Regarding `COc1ccccc1CN1CC(=O)N2CSC[C@H]2C1=O`, the “hERG current change (%, negative = inhibition) at 10uM” value turned out to be 10.3%.

Consider `CCOc1ccc(C(=O)NCC(=O)N2CCCC2)cc1`, for which the “hERG current change (%, negative = inhibition) at 10uM” value is reported as 7.26%.

Turning to `Cc1occc1-c1nnc(SCc2nnc(-c3ccc(Cl)cc3)o2)n1C`, the “hERG current change (%, negative = inhibition) at 10uM” value was -43.1%. The figure for `COc1ccccc1NC(=O)CSCc1cc(=O)n2ccsc2n1` is 13.3%; for `Cc1ccc(C(c2ccc(C)o2)c2cccc([N+](=O)[O-])c2O)o1` it is -6.66%. The figure for `CN1CCN(C(=O)c2cnn(-c3ccccc3)c2NC(=O)c2ccccc2Br)CC1` is 3.72%. For `C/C(=N\NC(=O)c1ccc(NS(=O)(=O)c2cccs2)cc1)c1ccc(C(C)(C)C)cc1`, the “hERG current change (%, negative = inhibition) at 10uM” value is on record as 7.41%. The figure for `O=C1CC(=C2c3ccccc3-c3ccccc32)C(=O)N1CCN1CCN(c2cccc(Cl)c2)CC1` is 3.74%; for `COc1ccccc1CNC(=O)Cc1ccccc1` it is 7.23%; for `CC12COC3(P(=O)(c4ccccc4)c4ccccc4)CC1CCC23CP(=O)(c1ccccc1)c1ccccc1` (centres unmarked) it is -38.2%. With `Cc1ccc(OC(C)C(=O)Nc2ccc3c(c2)n(C)c(=O)n3C)cc1C` (centres unmarked), the “hERG current change (%, negative = inhibition) at 10uM” value is recorded as 7.07%.

Take `O=C(NCCCN1CCOCC1)c1ccc2c(c1)N(Cc1cccc(F)c1)C(=O)c1ccccc1S2`: the “hERG current change (%, negative = inhibition) at 10uM” value was -23.2%. The figure for `CCc1cc2c(=O)c(-c3nc4ccccc4n3C)coc2c(CN2CCN(C)CC2)c1O` is -4.19%; for `COc1ccc(OC)c(/C=C2/Sc3ccccc3C2=O)c1` it is 18.5%; for `Cc1cc(=O)[nH]c(SCC(=O)N2CCN(C(c3ccccc3)c3ccccc3)CC2)n1` it is -14.4%. Consider `CC(=O)c1ccc(Nc2nc(NCCO)nc(OC(C(F)(F)F)C(F)(F)F)n2)cc1`, for which the “hERG current change (%, negative = inhibition) at 10uM” value is on record as -39.3%. In the case of `Cc1cc(/C=C(\C#N)C(=O)Nc2ccccc2F)c(C)[nH]1`, the “hERG current change (%, negative = inhibition) at 10uM” value turned out to be 47.9%. `COc1ccc(/C=N/Nc2nc3ccccc3o2)cc1O`: the “hERG current change (%, negative = inhibition) at 10uM” value was -19.2%. Take `NS(=O)(=O)c1cccnc1Nc1cccc(Cl)c1`: the “hERG current change (%, negative = inhibition) at 10uM” value is 11.8%. As for `CC(C)c1ccc(S(=O)(=O)NCc2ccc3c(c2)OCO3)cc1`, the “hERG current change (%, negative = inhibition) at 10uM” value is given as -9.6%. On to `COC(=O)COc1ccc(S(=O)(=O)Nc2ccc(C(N)=O)cc2)cc1Cl`, for which the “hERG current change (%, negative = inhibition) at 10uM” value is reported as 19%. In the case of `CCOc1cc(/C=N/NC(N)=O)cc(Br)c1OCC(=O)Nc1cccc2ccccc12`, the “hERG current change (%, negative = inhibition) at 10uM” value is 18.4%. Regarding `Br.COc1ccc2c(c1)[C@]13CCCC[C@@H]1[C@H](C2)N(C)CC3.O`, the “hERG current change (%, negative = inhibition) at 10uM” value is -5.88%. Turning to `O=C(CSc1ncnc2c1oc1ccccc12)Nc1ccccc1F`, the “hERG current change (%, negative = inhibition) at 10uM” value stood at 11.8%. The figure for `COc1ccc(-n2c(SCC(=O)N3CCc4ccccc43)nnc2-c2c[nH]c3ccccc23)cc1` is 22.1%; for `Cc1cc(C)n(C(=O)CNC(=O)CCc2ccccc2)n1` it is 0.648%. The figure for `COc1ccc(CSCC(=O)Nc2ccccc2SC)cc1` is -3.93%. The figure for `CC(NC(=O)COc1cc(=O)n(C)c2ccccc12)c1ccc2c(c1)OCCO2` (centres unmarked) is -3.34%; for `CCOc1ccc(CN2CCN(C3CCC3)CC2CCO)cc1` (centres unmarked) it is -19.2%; for `CC(C)(C)C1CCC(=NNc2nc3ccccc3[nH]2)CC1` (centres unmarked) it is 7.01%.

The record behind these values is paper PMC4336329 (PLoS ONE, 2015).
